Source: the supplement of paper PMC3334620
The full ranking holds about 33,000 sequences; the median of “E-score (-0.5 to 0.5)” is about -0.021, and the highest 2% start at about 0.32. This is one part of the list.

What follows are sequences tested against T1, Zap1 (UniProt P47043) (assay: PBM E-score (8-mer binding enrichment) (E-score (-0.5 to 0.5)); higher = stronger / more preferred TF binding; most listed sequences are background and not binding sites). Conditions: protein concentration: 200 nM; construct: GST-full length.
T1 sequence: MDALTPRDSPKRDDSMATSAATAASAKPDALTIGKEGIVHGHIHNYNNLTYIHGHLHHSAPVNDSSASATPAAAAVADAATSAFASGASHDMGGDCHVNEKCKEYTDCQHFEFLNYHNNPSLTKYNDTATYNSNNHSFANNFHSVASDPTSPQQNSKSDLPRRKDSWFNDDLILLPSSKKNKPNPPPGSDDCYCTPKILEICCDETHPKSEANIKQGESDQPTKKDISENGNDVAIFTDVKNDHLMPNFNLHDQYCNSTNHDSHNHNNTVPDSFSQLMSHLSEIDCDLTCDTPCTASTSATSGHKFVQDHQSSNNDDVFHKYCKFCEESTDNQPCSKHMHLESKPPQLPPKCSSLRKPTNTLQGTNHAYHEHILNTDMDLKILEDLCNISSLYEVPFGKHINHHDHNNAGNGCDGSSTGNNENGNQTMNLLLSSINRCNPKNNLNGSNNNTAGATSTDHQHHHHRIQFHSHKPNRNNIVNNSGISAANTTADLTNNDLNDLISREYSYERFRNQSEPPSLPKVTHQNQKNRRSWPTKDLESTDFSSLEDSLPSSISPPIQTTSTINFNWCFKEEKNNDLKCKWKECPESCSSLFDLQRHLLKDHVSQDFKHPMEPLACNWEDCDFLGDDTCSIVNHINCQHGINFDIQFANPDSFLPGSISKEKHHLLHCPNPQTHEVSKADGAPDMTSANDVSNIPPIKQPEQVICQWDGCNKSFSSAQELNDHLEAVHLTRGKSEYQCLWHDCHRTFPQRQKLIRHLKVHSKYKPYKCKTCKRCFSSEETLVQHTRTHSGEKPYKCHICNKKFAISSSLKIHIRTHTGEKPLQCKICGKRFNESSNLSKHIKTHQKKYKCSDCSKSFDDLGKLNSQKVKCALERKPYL
Protocol: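 Universal 'all 10-mer' protein binding microarrays (Agilent AMADID 015681) probed with GST-tagged S. cerevisiae TFs (full-length or DBD) made by in vitro transcription/translation (PURExpress), about 100-200 nM. Bound TF was detected with fluorescent anti-GST. Each ungapped 8-mer (which stands for itself and its reverse complement) is scored by the PBM enrichment score (E-score), a modified Wilcoxon-Mann-Whitney statistic from -0.5 to +0.5, computed with the Universal PBM Analysis Suite. Scale: above 0.35 generally sequence-specific binding.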

Sequence | PBM E-score
GATGCGAC | -0.187
CACGAAGC | -0.0938
ACTTGCCT | -0.141
CGCGGCAC | -0.13
GAAACGTA | -0.085
CCGAGGAC | -0.0983
ACAGTCGT | -0.0567
GAACAGCA | -0.127
GTGGCGAA | 0.0832
AAGCGACT | -0.149
GCTCAACA | 0.0073
ATGACAAC | 0.156
TCAGGAGA | -0.0323
CCGTAACG | 0.0821
ACGGTATA | 0.104
GAGGGAAC | -0.114
GAGGTAAA | 0.199
AACGTGTC | -0.19
GGAGAGCC | -0.28
CCGCTCAC | -0.079
GCTTACAC | -0.14
ACGTTGGG | -0.01
ATCCTGCC | -0.256
GGAACAAC | 0.134
CCGTTTGA | -0.0881

Sequence | PBM E-score
CCGTCTGA | -0.18
ACTTAAGA | 0.0625
GTGCGGCA | -0.127
ACAATAGC | -0.0302
GAAACATA | 0.318
AGGATGTC | -0.208
CGATGACA | -0.0529
CTGGCGGA | -0.209
CTAGCCCA | -0.148
AGTTCAGA | -0.0474
AGGACCTG | -0.0461
CGCTCACA | -0.0555
ATCAGCTA | -0.0531
ATAGACGA | -0.186
CCATGAAG | -0.00194
GCGCACTA | -0.183
GCGCGCCC | -0.122
AAGTGAAA | 0.0563
ACTATTGC | -0.0494
CTACAACA | -0.0355
AATGCGCC | -0.312
GGAAGGCA | -0.191
CCATTTTA | 0.133
CGTGGCCA | 0.0519
AACTTTCT | 0.102

Sequence | PBM E-score
ATTTCTCC | 0.0117
ATAGTAGC | 0.0528
GGACGGCA | -0.254
CGGATCGC | 0.0251
GTGTGACA | -0.117
AAGCTGAA | -0.0829
ACTTGCCG | -0.199
ATCGAGTG | 0.0271
GGAGCACC | -0.0356
AGTATGGC | -0.195
CTGACAAC | 0.071
AGGTTTCG | 0.0746
ATCAGGAC | -0.0926
GTCCGCGA | 0.0514
ATCGCCGC | -0.0186
AAGGTGCC | 0.0573
GGCCTCCA | 0.07
GTTGATAA | 0.188
GAGAATGA | 0.0402
ACGGCTTC | -0.241
CTGCAGCC | -0.0712
CGACCACG | -0.0755
ATACAAAT | 0.156
TAATAGCA | 0.0302
ACTGTTGG | -0.153

Sequence | PBM E-score
ATTTCTTA | -0.0462
GCCCCCGA | -0.0626
AGACGAAT | -0.116
AAGCATCG | -0.159
ACCGATCT | -0.122
ATCTTCCG | -0.0467
CGATGAAG | -0.0144
AGAGTCTC | -0.194
CCGCAATC | 0.103
AGGGGATA | -0.0015
CCTTAACA | 0.116
ATTTAGTG | 0.191
CTACTCCC | -0.175
ATGATATA | 0.0247
AGGTGTAT | 0.00014
ACGGTTAC | 0.411
ATAGCACA | 0.0876
CTTGGGAC | -0.0077
CGTAAACG | -0.252
AAGTCTGT | -0.117
CTACCGTA | 0.142
ACCGTTTC | 0.0929
GACCGCCC | -0.00091
CGGGTTGC | 0.18
AAATAAAC | 0.122

Sequence | PBM E-score
ATACGAAG | 0.00666
CCGACAGC | -0.279
CCCTTTAG | 0.127
CTACTAGA | 0.00676
TAATGCAA | -0.0171
ATCTCTCC | -0.211
AAGACGAA | -0.0651
CAAATATG | -0.047
CTAACCAG | 0.146
GATCAATC | -0.0229
GCCAACGC | -0.00447
AAACAGGA | 0.155
CCGTAGGA | -0.185
CAGCGCTG | -0.0316
ACATCCGT | 0.00877
ATGGCTGG | -0.17
CCGGGGTC | 0.348
ATCAAGGC | -0.0458
ACGCAACA | 0.114
GATCACCA | 0.188
CTCAGCAC | -0.0316
CACCAGCA | -0.108
AAACGGCC | 0.0324
CGGGTTGA | 0.24
CCTGGAAA | 0.125

Sequence | PBM E-score
GTGGAGAA | -0.145
TACGCGTA | 0.135
CCTTCGCA | -0.144
ACTACGAA | 0.029
GTTCCCTA | -0.0435
GCTACCTA | 0.0243
GTGATGCA | 0.00915
TCTTGTCA | 0.164
TAAATTTA | 0.252
CGATAATA | -0.0489
GATCACTA | 0.093
AACGTCCG | 0.0175
AGTCCGCA | -0.0314
CGTCCGTC | -0.15
GAGCGGTA | 0.108
CTTCGTCC | -0.273
ACAAAAGA | 0.138
ATGGGTAC | 0.328
TAAAGCGA | 0.0443
AACCATCT | 0.02
AGTTTAGG | -0.0723
CACGATGC | -0.176
CGTTCGAA | 0.0668
AATGCAGA | 0.0881
CCCCTCGC | 0.0553

Sequence | PBM E-score
GGACTACA | 0.0317
GCTGATAA | 0.116
CGGAAAAC | -0.016
CATAGATC | -0.0935
TGGTGTAA | 0.23
CACTCCCA | -0.107
AACTAAAA | 0.255
AAACTACG | -0.0194
AACGTATA | -0.0404
CGCATGAG | -0.104
ATTACAAT | -0.012
ATTCGTCG | 0.0403
CTATGGGA | -0.0388
AAGTGCCC | -0.189
ACCTTTCA | 0.257
GACGATCC | -0.105
ACGCGGCG | 0.0082
GTCCTAGA | -0.0988
AAACCATG | 0.211
TGACGTCA | 0.13
GAACTACC | 0.162
AGAACAGC | -0.147
